Where two headings read alike, the source gives them in different places.
Assays:
Experiment in all cases: cells
[1] = system: HPDE; parameters: Viability of PDAC cell lines, ATPlite luminescence, 11-dose single-agent curve fit; settings: HPDE, 72 h, read-out: EC50 [nM]
Protocol: (§1) Afterward, small amounts were transferred to 384-well intermediate plates (Greiner Bio-One GmbH, Germany). […] For drug combination screening, 1000 to 5000 cells were seeded into 384-well plates (CulturPlate™, Perkin Elmer, MA, USA) using a Multidrop™ Combi Reagent Dispenser (Thermo Scientific, MA, USA) in 50 µl medium per well 24 h prior to drug treatment (seeding densities see Appendix Table S1). […] The final DMSO concentration in each well was 0.2%. […] Eight wells per plate without library drug served as negative controls, and sixteen wells per plate containing 5 µM Staurosporine served as positive controls. […] Next, we analyzed the drug sensitivity of immortalized duct cell line HPDE to detect effects unrelated to pancreatic cancer.

[2] = system: PSN-1; parameters: Viability of PDAC cell lines, ATPlite luminescence, 11-dose single-agent curve fit; settings: Homo sapiens, PSN1, 72 h, read-out: EC50 [nM]
Protocol: as §1

[3] = system: Dan-G; parameters: Viability of PDAC cell lines, ATPlite luminescence, 11-dose single-agent curve fit; settings: 72 h, read-out: EC50 [nM]
Protocol: as §1

[4] = system: Colo-357; parameters: Viability of PDAC cell lines, ATPlite luminescence, 11-dose single-agent curve fit; settings: Homo sapiens, COLO357, 72 h, read-out: EC50 [nM]
Protocol: as §1

[5] = system: Capan-1; parameters: Viability of PDAC cell lines, ATPlite luminescence, 11-dose single-agent curve fit; settings: Homo sapiens, CAPAN-1, 72 h, read-out: EC50 [nM]
Protocol: as §1

[6] = system: FAMPAC; parameters: Viability of PDAC cell lines, ATPlite luminescence, 11-dose single-agent curve fit; settings: 72 h, read-out: EC50 [nM]
Protocol: as §1

[7] = system: BxPC-3; parameters: Viability of PDAC cell lines, ATPlite luminescence, 11-dose single-agent curve fit; settings: Homo sapiens, BXPC-3, 72 h, read-out: EC50 [nM]
Protocol: as §1

[8] = system: Suit2-07; parameters: Viability of PDAC cell lines, ATPlite luminescence, 11-dose single-agent curve fit; settings: 72 h, read-out: EC50 [nM]
Protocol: as §1

[9] = system: PANC-1; parameters: Viability of PDAC cell lines, ATPlite luminescence, 11-dose single-agent curve fit; settings: Homo sapiens, PANC-1, 72 h, read-out: EC50 [nM]
Protocol: as §1

[10] = system: AsPC-1; parameters: Viability of PDAC cell lines, ATPlite luminescence, 11-dose single-agent curve fit; settings: Homo sapiens, ASPC1, 72 h, read-out: EC50 [nM]
Protocol: as §1

[11] = system: HPDE; parameters: ATPlite luminescence viability of PDAC cell lines, 11-dose single-agent curves, 4-parameter fit; settings: HPDE, 72 h, read-out: EC50 [nM]
Protocol: as §1

[12] = system: HuP-T4; parameters: ATPlite luminescence viability of PDAC cell lines, 11-dose single-agent curves, 4-parameter fit; settings: Homo sapiens, HuP-T4, 72 h, read-out: EC50 [nM]
Protocol: as §1

[13] = system: PSN-1; parameters: ATPlite luminescence viability of PDAC cell lines, 11-dose single-agent curves, 4-parameter fit; settings: Homo sapiens, PSN1, 72 h, read-out: EC50 [nM]
Protocol: as §1

[14] = system: Dan-G; parameters: ATPlite luminescence viability of PDAC cell lines, 11-dose single-agent curves, 4-parameter fit; settings: 72 h, read-out: EC50 [nM]
Protocol: as §1

[15] = system: Colo-357; parameters: ATPlite luminescence viability of PDAC cell lines, 11-dose single-agent curves, 4-parameter fit; settings: Homo sapiens, COLO357, 72 h, read-out: EC50 [nM]
Protocol: as §1

[16] = system: Capan-1; parameters: ATPlite luminescence viability of PDAC cell lines, 11-dose single-agent curves, 4-parameter fit; settings: Homo sapiens, CAPAN-1, 72 h, read-out: EC50 [nM]
Protocol: as §1

[17] = system: FAMPAC; parameters: ATPlite luminescence viability of PDAC cell lines, 11-dose single-agent curves, 4-parameter fit; settings: 72 h, read-out: EC50 [nM]
Protocol: as §1

[18] = system: BxPC-3; parameters: ATPlite luminescence viability of PDAC cell lines, 11-dose single-agent curves, 4-parameter fit; settings: Homo sapiens, BXPC-3, 72 h, read-out: EC50 [nM]
Protocol: as §1

[19] = system: MiaPaCa-2; parameters: ATPlite luminescence viability of PDAC cell lines, 11-dose single-agent curves, 4-parameter fit; settings: Homo sapiens, MIA PaCa-2, 72 h, read-out: EC50 [nM]
Protocol: as §1

[20] = system: Suit2-07; parameters: ATPlite luminescence viability of PDAC cell lines, 11-dose single-agent curves, 4-parameter fit; settings: 72 h, read-out: EC50 [nM]
Protocol: as §1

[21] = system: PANC-1; parameters: ATPlite luminescence viability of PDAC cell lines, 11-dose single-agent curves, 4-parameter fit; settings: Homo sapiens, PANC-1, 72 h, read-out: EC50 [nM]
Protocol: as §1

[22] = system: AsPC-1; parameters: ATPlite luminescence viability of PDAC cell lines, 11-dose single-agent curves, 4-parameter fit; settings: Homo sapiens, ASPC1, 72 h, read-out: EC50 [nM]
Protocol: as §1

[23] = system: PaTu-8988-T; parameters: ATPlite luminescence viability of PDAC cell lines, 11-dose single-agent curves, 4-parameter fit; settings: Homo sapiens, PaTu 8988t, 72 h, read-out: EC50 [nM]
Protocol: as §1

[24] = system: HuP-T4; parameters: Viability of PDAC cell lines, ATPlite luminescence, 11-dose single-agent curve fit; settings: Homo sapiens, HuP-T4, 72 h, read-out: EC50 [nM]
Protocol: as §1

[25] = system: MiaPaCa-2; parameters: Viability of PDAC cell lines, ATPlite luminescence, 11-dose single-agent curve fit; settings: Homo sapiens, MIA PaCa-2, 72 h, read-out: EC50 [nM]
Protocol: as §1

[26] = system: PaTu-8988-T; parameters: Viability of PDAC cell lines, ATPlite luminescence, 11-dose single-agent curve fit; settings: Homo sapiens, PaTu 8988t, 72 h, read-out: EC50 [nM]
Protocol: as §1

| SMILES | EC50 [1] [nM] | EC50 [2] [nM] | EC50 [3] [nM] | EC50 [4] [nM] | EC50 [5] [nM] | EC50 [6] [nM] | EC50 [8] [nM] | EC50 [9] [nM] | EC50 [10] [nM] | EC50 [11] [nM] | EC50 [13] [nM] | EC50 [14] [nM] | EC50 [15] [nM] | EC50 [17] [nM] | EC50 [18] [nM] | EC50 [19] [nM] | EC50 [20] [nM] | EC50 [22] [nM] | EC50 [24] [nM] | further results |
| --- | --- | --- | --- | --- | --- | --- | --- | --- | --- | --- | --- | --- | --- | --- | --- | --- | --- | --- | --- | --- |
| C[C@@H]1CCN(C(=O)CC#N)C[C@@H]1N(C)c1ncnc2[nH]ccc12 [Tofacitinib] | 2.55 | 5480 | 259 | 23.6 | 1430 | 3450 | 0.09 | 0.09 | 123 | – | – | – | – | – | – | – | – | – | – | EC50 [7]: 0.2 nM |
| CCc1cnn2c(NCc3ccc[n+]([O-])c3)cc(N3CCCC[C@H]3CCO)nc12 [Dinaciclib] | – | – | – | – | – | – | – | – | – | 7.25 | 5.08 | 9.31 | 7.28 | 4.36 | 7.16 | 3.21 | 12.4 | 11.8 | – | EC50 [12]: 10.6 nM; EC50 [16]: 7.38 nM; EC50 [21]: 19.4 nM |
| COc1cc(OC)cc(N(CCNC(C)C)c2ccc3ncc(-c4cnn(C)c4)nc3c2)c1 [Erdafitinib] | – | – | – | – | 5060 | – | – | > 10000 | – | > 10000 | > 10000 | > 10000 | 3000 | 4680 | > 10000 | 1940 | 2270 | 6540 | 95.2 | EC50 [23]: 4390 nM |
| Cc1ccc(NC(=O)c2ccc(CN3CCN(C)CC3)cc2)cc1Nc1nccc(-c2cccnc2)n1 [Imatinib] | 8790 | 3840 | > 10000 | 2150 | > 10000 | > 10000 | 4070 | > 10000 | > 10000 | – | – | – | – | – | > 10000 | – | – | – | > 10000 | EC50 [25]: 7160 nM; EC50 [26]: > 10000 nM |
